# Measured values taken from PubChem BioAssay (Tox21).
# Several values for one entry are separate records, joined by “and”; a condition that tells them apart may be missing. Equal values may be shown once. The inconclusive results got no clear call from the source; some entries with a clear call stand among them for comparison. For some of these results: Potencies beside an inconclusive call are fits to weak or partial responses and may not hold up. More than one record can exist for a structure, and the calls need not agree. Activity calls are given as the source filed them. Unless noted, calls follow the shape of the dose curve; as a rule, active = well fitted curve in the direction sought with a large enough effect in the repeat runs; inconclusive = weak or mixed curves; inactive = no such curve, though single readings can be large; an effect the other way counts as inactive or inconclusive.
# Assays:
# [1] = target: Peroxisome proliferator-activated receptor gamma (Homo sapiens) (UniProt P37231); test: qHTS assay to identify small molecule antagonists of the peroxisome proliferator-activated receptor gamma (PPARg) signaling pathway (AID 743191; calls by dose curve; also: % is scaled to controls: 0 for no effect and ±100 for the full control effect; nearly all actives have a fitted effect of over 30% in size); conditions: HEK293H PPARg-UAS-bla, beta-lactamase ratio, antagonist, 17 h; ratio activity, negative = inhibition: at 62.6 µM (top of the series) unless noted
# Chain of UniProt P37231 (P37231 whole entry, looked up): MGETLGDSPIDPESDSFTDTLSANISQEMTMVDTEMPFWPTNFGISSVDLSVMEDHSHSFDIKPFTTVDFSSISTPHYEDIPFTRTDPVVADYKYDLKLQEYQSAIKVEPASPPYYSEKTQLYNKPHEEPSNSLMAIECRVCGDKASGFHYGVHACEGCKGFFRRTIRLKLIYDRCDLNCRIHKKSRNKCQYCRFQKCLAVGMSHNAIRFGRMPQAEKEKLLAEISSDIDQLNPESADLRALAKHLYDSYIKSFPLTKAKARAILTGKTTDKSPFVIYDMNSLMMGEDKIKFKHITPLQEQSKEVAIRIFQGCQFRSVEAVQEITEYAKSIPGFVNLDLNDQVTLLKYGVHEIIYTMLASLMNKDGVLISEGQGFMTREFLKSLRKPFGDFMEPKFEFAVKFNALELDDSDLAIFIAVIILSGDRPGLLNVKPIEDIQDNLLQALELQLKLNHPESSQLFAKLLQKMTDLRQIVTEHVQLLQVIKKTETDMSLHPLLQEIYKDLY
# In short: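 Beta-lactamase reporter under UAS control in HEK293H PPARg-bla cells; compound treatment 17 h at 37C. Read-out: fluorescence intensity after 1 h room-temperature incubation with LiveBLAzer B/G FRET substrate.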
# [2] = target: Vitamin D3 receptor (Homo sapiens) (UniProt P11473); test: qHTS assay to identify small molecule antagonists of the vitamin D receptor (VDR) signaling pathway (AID 743223; active = well fitted inhibition curve with a large enough effect in the signal ratio in the repeat runs, not every such curve was filed as active; inconclusive = weak or mixed curves, or effect the other way; inactive = no such curve, though single readings can be large or run the other way; the % refers to the signal ratio; also: potency is read from the fitted curve at half-maximal effect; as to activity change, negative = inhibition: % is scaled to controls: 0 for no effect and ±100 for the full control effect); conditions: VDR-UAS-bla HEK293T, beta-lactamase FRET ratio, 16 h; activity change, negative = inhibition: at 61 µM (top of the series) unless noted
# Chain of UniProt P11473 (P11473 whole entry, looked up): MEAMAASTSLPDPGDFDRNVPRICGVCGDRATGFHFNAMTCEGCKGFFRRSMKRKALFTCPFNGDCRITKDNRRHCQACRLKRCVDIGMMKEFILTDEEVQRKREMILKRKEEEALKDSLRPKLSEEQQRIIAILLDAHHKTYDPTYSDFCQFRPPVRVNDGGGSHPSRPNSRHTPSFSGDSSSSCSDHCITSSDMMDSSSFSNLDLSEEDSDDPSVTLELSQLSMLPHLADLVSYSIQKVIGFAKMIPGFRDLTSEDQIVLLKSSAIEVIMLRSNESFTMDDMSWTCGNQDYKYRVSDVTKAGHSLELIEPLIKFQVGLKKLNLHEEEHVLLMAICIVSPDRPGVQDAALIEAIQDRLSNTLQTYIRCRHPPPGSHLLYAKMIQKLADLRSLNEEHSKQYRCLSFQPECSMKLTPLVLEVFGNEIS
# In short: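 Inhibition of agonist-driven VDR signalling is scored in VDR-bla cells: 3 nM final 1alpha,25-dihydroxyvitamin D3 plus compound, 16 h at 37C, then beta-lactamase detection by FRET substrate fluorescence after 2 h.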
# [3] = qHTS assay to identify small molecule antagonists of the retinoic acid receptor (RAR) signaling pathway (AID 1159552; also: nearly all actives have a fitted effect of over 50% in size; also: potency is read from the fitted curve at half-maximal effect)
# In short: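 Test chemicals and DMSO controls were pin-transferred onto C3RL4 cells a day after seeding; retinol (1 uM final) followed at once. Luminescent reporter output was quantified after 6 hr of co-incubation and 30 min with detection reagent.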
# [4] = qHTS assay to identify small molecule antagonists of the sonic hedgehog signaling (Shh) pathway (AID 1259369; calls by dose curve; also: nearly all actives have a fitted effect of over 45% in size; also: potency is read from the fitted curve at half-maximal effect; as to activity change, negative = inhibition: % is scaled to controls: 0 for no effect and ±100 for the full control effect)
# In short: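 Screening used 3T3Gli1-Luc cells at 2,000 per well, compounds delivered in DMSO, and conditioned medium as agonist stimulus; plates incubated 24hr at 37 C and 5% CO2 before a 30min luciferase step.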
# [5] = target: Progesterone receptor (Homo sapiens) (UniProt P06401); test: qHTS assay to identify small molecule antagonists of the progesterone receptor (PR) signaling pathway (AID 1346795; active = well fitted inhibition curve with a large enough effect in the signal ratio in the repeat runs, not every such curve was filed as active; inconclusive = weak or mixed curves; the % refers to the signal ratio; also: potency is read from the fitted curve at half-maximal effect); conditions: PR-UAS-bla HEK293T, beta-lactamase FRET ratio, 16 h; activity change, negative = inhibition: at 92.4 µM (top of the series) unless noted
# Chain of UniProt P06401 (P06401 whole entry, looked up): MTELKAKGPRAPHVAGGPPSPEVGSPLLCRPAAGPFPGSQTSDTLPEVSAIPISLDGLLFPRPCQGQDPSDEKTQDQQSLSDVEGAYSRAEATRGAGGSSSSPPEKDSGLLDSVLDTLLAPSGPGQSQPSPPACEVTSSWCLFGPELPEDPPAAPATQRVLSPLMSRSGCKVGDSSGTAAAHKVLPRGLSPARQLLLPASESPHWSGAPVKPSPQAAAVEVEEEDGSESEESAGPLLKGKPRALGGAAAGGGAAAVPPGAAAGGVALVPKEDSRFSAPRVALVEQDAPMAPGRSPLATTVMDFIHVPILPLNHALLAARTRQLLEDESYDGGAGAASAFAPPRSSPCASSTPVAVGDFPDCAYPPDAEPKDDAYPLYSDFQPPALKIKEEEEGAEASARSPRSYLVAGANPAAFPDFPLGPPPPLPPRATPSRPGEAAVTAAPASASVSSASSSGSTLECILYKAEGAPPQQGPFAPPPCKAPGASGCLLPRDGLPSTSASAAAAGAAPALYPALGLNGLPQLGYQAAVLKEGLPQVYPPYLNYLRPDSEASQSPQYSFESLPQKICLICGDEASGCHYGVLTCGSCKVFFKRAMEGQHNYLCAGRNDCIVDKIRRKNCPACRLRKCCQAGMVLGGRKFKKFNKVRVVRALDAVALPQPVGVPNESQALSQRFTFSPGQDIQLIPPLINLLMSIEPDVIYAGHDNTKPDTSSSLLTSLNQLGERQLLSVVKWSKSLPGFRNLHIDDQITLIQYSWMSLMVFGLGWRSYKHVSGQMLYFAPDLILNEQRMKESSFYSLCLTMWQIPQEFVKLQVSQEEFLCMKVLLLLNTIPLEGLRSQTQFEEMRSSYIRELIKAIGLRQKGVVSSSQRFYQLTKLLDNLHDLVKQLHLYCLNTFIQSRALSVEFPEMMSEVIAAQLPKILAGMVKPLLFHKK
# In short: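 Stimulus R5020 at 1 nM final; cells HEK293T PR-UAS-bla; medium with 2% charcoal-stripped FBS; compound exposure 16 hr at 37C, 5% CO2; detection by FRET beta-lactamase substrate, 2 hr, room temperature.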
# [6] = target: Cytochrome P450 2C19 (Homo sapiens) (UniProt P33261); test: Cytochrome P450 Family 2 Subfamily C Member 19 (CYP2C19) small molecule antagonists: luciferase reporter qHTS assay (AID 1671197); also: potency is read from the fitted curve at half-maximal effect; nearly all actives have a fitted effect of over 65% in size
# Chain of UniProt P33261 (P33261 whole entry, looked up): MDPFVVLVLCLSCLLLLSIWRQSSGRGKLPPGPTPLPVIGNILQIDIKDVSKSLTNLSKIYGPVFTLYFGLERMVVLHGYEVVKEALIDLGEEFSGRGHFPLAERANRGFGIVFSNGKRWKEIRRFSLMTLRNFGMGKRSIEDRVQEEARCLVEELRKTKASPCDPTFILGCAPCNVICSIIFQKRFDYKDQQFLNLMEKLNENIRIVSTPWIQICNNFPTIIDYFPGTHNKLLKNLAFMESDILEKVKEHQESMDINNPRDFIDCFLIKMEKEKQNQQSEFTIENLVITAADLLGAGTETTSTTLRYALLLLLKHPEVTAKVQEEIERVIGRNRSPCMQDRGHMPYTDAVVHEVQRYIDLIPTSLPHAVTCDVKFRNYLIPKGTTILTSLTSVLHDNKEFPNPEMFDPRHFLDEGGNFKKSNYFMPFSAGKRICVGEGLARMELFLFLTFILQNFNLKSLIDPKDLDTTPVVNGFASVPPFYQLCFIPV
# In short: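 CYP2C19 P450-Glo, 1536-well qHTS. Cpd + enzyme/proluciferin substrate 10 min RT; + NADPH regen, 37C 1 h; stop with luciferin detection reagent, 20 min RT, luminescence (RLU). Pos ctrl ketoconazole.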
# [7] = qHTS assay for small molecule disruptors of the mitochondrial membrane potential (AID 720635); conditions: HepG2 mitochondrial membrane potential, Mito-MPS dye ratio; ratio activity, negative = MMP loss: at 83.2 µM (top of the series) unless noted; also: % is scaled to controls: 0 for no effect and ±100 for the full control effect
# In short: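 Mitochondrial membrane potential tracked with Mito-MPS dye, red aggregates (ex 540/em 590 nm) against green monomers (ex 490/em 535 nm). Compound treatment 1 hr at 37C, dye 30 min in HepG2.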
# [8] = qHTS assay for identifying genotoxic compounds that show differential cytotoxicity against isogenic chicken DT40 cell lines with known DNA damage response pathways - wild type cell line (AID 743012); conditions: DT40 wild type chicken cells viability, CellTiter-Glo, 40 h; activity change, negative = cytotoxicity: at 68.4 µM (top of the series) unless noted; also: nearly all actives have a fitted effect of over 60% in size; also: potency is read from the fitted curve at half-maximal effect
# In short: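 Quantitative HTS on parental DT40 cells: 40 h compound treatment at 37 C/5% CO2, with viability then determined by CellTiter-Glo luminescence. Values serve as the DNA repair-proficient reference for differential cytotoxicity.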
# [9] = qHTS assay for small molecule agonists of the antioxidant response element (ARE) signaling pathway (AID 743202; active = well fitted activation curve with a large enough effect in the signal ratio in the repeat runs, not every such curve was filed as active; inconclusive = weak or mixed curves, or effect the other way; inactive = no such curve, though single readings can be large or run the other way; the % refers to the signal ratio; also: potency is read from the fitted curve at half-maximal effect); conditions: HepG2 ARE-bla reporter, beta-lactamase FRET, 16 h; activation: at 73.3 µM (top of the series) unless noted
# In short: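 An ARE-responsive beta-lactamase gene stably integrated in HepG2 cells serves as reporter. After 5 h plating and 16 h compound incubation at 37 C, fluorescence of the B/G FRET substrate was measured.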
# [10] = target: Estrogen receptor beta (Homo sapiens) (UniProt Q92731); test: qHTS assay to identify small molecule antagonists of the estrogen receptor beta (ER-beta) signaling pathway (AID 1259378; active = well fitted inhibition curve with a large enough effect in the signal ratio in the repeat runs, not every such curve was filed as active; inconclusive = weak or mixed curves, or effect the other way; inactive = no such curve, though single readings can be large or run the other way; the % refers to the signal ratio; also: potency is read from the fitted curve at half-maximal effect); conditions: ER-beta-UAS-bla HEK293T, beta-lactamase FRET ratio, 16 h
# Chain of UniProt Q92731 (Q92731 whole entry, looked up): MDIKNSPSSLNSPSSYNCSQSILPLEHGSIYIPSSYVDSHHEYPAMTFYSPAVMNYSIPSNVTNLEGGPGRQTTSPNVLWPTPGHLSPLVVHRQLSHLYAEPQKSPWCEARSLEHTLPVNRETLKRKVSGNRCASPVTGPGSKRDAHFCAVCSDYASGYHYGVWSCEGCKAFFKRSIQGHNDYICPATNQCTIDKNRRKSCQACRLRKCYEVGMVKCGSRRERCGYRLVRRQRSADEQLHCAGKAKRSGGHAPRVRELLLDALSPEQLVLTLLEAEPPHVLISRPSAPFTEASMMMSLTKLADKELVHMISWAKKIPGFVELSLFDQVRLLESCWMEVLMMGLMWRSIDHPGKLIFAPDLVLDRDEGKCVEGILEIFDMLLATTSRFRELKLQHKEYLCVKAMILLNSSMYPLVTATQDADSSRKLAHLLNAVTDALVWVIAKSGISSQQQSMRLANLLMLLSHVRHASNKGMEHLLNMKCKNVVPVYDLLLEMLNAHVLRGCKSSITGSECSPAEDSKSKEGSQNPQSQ
# In short: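 Antagonist mode: compounds added to beta-lactamase reporter HEK293T ER-beta-UAS cells stimulated with E2 (1nM final), 16 hr at 37C. LiveBLAzer B/G FRET substrate, 2 hours room temperature, fluorescence read-out.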
# [11] = target: Cytochrome P450 2C9 (Homo sapiens) (UniProt P11712); test: Cytochrome P450 Family 2 Subfamily C Member 9 (CYP2C9) small molecule antagonists: luciferase reporter qHTS assay (AID 1671198); also: potency is read from the fitted curve at half-maximal effect; nearly all actives have a fitted effect of over 50% in size
# Chain of UniProt P11712 (P11712 whole entry, looked up): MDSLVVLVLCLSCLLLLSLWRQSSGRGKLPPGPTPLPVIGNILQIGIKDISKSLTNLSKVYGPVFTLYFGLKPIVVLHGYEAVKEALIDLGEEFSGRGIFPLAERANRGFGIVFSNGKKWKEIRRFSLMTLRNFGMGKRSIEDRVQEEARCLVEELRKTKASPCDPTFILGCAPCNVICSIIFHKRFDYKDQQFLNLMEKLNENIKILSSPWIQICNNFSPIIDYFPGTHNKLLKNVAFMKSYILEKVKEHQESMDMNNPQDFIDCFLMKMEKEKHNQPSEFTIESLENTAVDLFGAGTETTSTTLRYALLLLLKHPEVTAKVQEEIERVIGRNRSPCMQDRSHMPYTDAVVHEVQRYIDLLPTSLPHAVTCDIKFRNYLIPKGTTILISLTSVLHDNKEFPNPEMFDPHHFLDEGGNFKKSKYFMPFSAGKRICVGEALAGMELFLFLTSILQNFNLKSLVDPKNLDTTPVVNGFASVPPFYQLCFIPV
# In short: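 Enzyme-substrate mix preincubated with compound 10 min at room temperature; reaction started with NADPH regeneration solution, 1 h 37C. Luminescent luciferin product read after 20 min detection reagent.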
# [12] = target: Glucocorticoid receptor (Homo sapiens) (UniProt P04150); test: qHTS assay to identify small molecule antagonists of the glucocorticoid receptor (GR) signaling pathway (AID 720692; active = well fitted inhibition curve with a large enough effect in the signal ratio in the repeat runs, not every such curve was filed as active; inconclusive = weak or mixed curves, or effect the other way; inactive = no such curve, though single readings can be large or run the other way; the % refers to the signal ratio; also: % is scaled to controls: 0 for no effect and ±100 for the full control effect); conditions: GR-bla HeLa, beta-lactamase FRET ratio, dexamethasone-stimulated, 18 h; activity change, negative = inhibition: at 58.5 µM (top of the series) unless noted
# Chain of UniProt P04150 (P04150 whole entry, looked up): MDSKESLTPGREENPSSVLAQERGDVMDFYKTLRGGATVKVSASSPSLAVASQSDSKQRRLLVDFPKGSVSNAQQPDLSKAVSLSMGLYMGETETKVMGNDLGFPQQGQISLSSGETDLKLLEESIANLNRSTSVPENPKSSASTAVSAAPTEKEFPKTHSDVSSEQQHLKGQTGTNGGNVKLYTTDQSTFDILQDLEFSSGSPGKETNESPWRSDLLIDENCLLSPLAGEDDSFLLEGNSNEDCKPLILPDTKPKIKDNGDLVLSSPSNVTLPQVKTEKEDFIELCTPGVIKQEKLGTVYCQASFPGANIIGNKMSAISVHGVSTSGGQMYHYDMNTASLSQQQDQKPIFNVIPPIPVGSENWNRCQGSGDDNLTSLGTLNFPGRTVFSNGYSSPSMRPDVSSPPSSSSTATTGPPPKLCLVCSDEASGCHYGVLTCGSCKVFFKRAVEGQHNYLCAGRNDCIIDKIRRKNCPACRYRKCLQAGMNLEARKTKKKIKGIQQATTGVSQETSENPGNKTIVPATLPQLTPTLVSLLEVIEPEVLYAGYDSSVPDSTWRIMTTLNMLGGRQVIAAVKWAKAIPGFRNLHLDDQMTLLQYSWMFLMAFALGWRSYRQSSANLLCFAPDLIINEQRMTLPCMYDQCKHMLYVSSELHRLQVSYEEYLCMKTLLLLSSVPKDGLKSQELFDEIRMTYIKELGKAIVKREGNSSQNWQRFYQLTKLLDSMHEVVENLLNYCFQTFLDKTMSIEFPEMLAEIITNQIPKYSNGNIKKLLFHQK
# In short: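 Fluorescence from cleaved LiveBLAzer B/G FRET substrate reports GRE-driven beta-lactamase in HeLa cells; compounds are tested against 5 nM dexamethasone (final) over 18 h at 37 C, substrate incubation 2 h at room temperature.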
# [13] = qHTS assay for identifying genotoxic compounds that show differential cytotoxicity against isogenic chicken DT40 cell lines with known DNA damage response pathways - Rev3 mutant cell line (AID 743014); conditions: chicken DT40 Rev3-/- viability, CellTiter-Glo, 40 h; activity, negative = cytotoxicity: at 68.4 µM (top of the series) unless noted; also: nearly all actives have a fitted effect of over 55% in size; also: potency is read from the fitted curve at half-maximal effect
# [14] = qHTS assay to identify small molecule antagonists of the thyroid receptor (TR) signaling pathway - cell viability counter screen (AID 743064); conditions: GH3.TRE-Luc viability, CellTiter-Fluor, 24 h; activity change, negative = cytotoxic: at 70.3 µM (top of the series) unless noted; also: potency is read from the fitted curve at half-maximal effect; nearly all actives have a fitted effect of over 50% in size
# In short: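 CellTiter-Fluor readout, 30 min at 37 °C/5% CO2, following 23.5 h incubation of GH3.TRE-Luc cells with test compound and 1 nM T3 (final).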
# [15] = target: Cytochrome P450 2D6 (Homo sapiens) (UniProt P10635); test: Cytochrome P450 Family 2 Subfamily D Member 6 (CYP2D6) small molecule antagonists: luciferase reporter qHTS assay (AID 1671196); also: potency is read from the fitted curve at half-maximal effect; nearly all actives have a fitted effect of over 50% in size
# In short: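 Inhibition of CYP2D6 was gauged by loss of luminescence, since light produced tracks the luciferin generated from a proluciferin substrate. A 10 min room-temperature preincubation preceded 1 h NADPH-supported turnover.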
# [16] = target: Estrogen receptor (Homo sapiens) (UniProt P03372); test: qHTS assay to identify small molecule agonists of the estrogen receptor alpha (ER-alpha) signaling pathway using the BG1 cell line (AID 743079); conditions: BG1Luc4E2 cells, ERE-luciferase agonist, 22 h; activation: at 70.3 µM (top of the series) unless noted; also: potency is read from the fitted curve at half-maximal effect; nearly all actives have a fitted effect of over 20% in size
# Chain of UniProt P03372 (P03372 whole entry, looked up): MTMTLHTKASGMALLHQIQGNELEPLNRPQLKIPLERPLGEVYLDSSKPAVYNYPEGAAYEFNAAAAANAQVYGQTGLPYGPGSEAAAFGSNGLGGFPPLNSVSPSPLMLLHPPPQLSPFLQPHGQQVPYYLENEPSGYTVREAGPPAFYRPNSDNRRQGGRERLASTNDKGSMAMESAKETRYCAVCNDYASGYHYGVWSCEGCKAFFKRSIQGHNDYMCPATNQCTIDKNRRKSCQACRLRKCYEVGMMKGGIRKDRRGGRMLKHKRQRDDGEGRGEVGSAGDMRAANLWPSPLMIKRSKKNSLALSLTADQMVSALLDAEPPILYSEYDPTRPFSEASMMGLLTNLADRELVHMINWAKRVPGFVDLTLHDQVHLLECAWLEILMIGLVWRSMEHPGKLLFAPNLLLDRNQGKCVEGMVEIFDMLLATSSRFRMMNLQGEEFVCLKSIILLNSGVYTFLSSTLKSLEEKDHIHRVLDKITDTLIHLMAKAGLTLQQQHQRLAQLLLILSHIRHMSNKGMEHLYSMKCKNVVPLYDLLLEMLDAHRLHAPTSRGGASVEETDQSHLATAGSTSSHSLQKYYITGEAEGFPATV
# [17] = qHTS assay for small molecule agonists of the p53 signaling pathway (AID 651631; calls by dose curve; also: % is scaled to controls: 0 for no effect and ±100 for the full control effect; nearly all actives have a fitted effect of over 15% in size); conditions: HCT-116 p53RE-bla reporter, beta-lactamase FRET ratio, 16 h; activation: at 73.3 µM (top of the series) unless noted
# In short: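 Beta-lactamase reporter activity under p53 response elements was quantified in HCT-116 cells by FRET fluorescence, following 16 h incubation with test compounds at 37 °C and 2 h substrate development at room temperature.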
# [18] = activity, negative = inhibition: at 92.4 µM (top of the series) unless noted
# Tags tell the direction and shape of the fitted curve or compound fluorescence and quenching.
smiles,measurement,setting,value
C[C@]12CCC(=O)C=C1CC[C@@H]1[C@@H]2[C@@H](O)C[C@@]2(C)[C@H]1CC[C@]2(O)C(=O)CO,"ratio activity, negative = inhibition",[1],inconclusive: 0.337% [at 81.1 µM]
same,"activity change, negative = inhibition",[2],inconclusive: 0.486%
same,Potency,[3],"inconclusive: 61.8 µM [inhibitor, partial curve]"
same,Potency,[4],"inconclusive: 11 nM [inhibitor, full curve] and inactive"
same,Potency,[5],inconclusive: 2.11 µM
same,"activity change, negative = inhibition",[5],inconclusive: -12.7%
same,Potency,[6],"inconclusive: 90.4 µM [inhibitor, single point]"
c1ccc2c(c1)Cc1ccccc1-2,"ratio activity, negative = MMP loss",[7],inconclusive: -2.7%
same,Potency,[8],"inactive and inconclusive: 77 µM [cytotoxic, single point]"
same,"ratio activity, negative = inhibition",[1],inconclusive: 19.3% [at 81.1 µM]
same,Potency,[9],"inconclusive: 48.6 µM [rising, partial curve]"
same,Potency,[3],inactive
same,"activity, negative = inhibition",[10]; [18],inconclusive: 23.9%
same,"activity, negative = inhibition",[10]; at 92.4 µM (top of the series),inactive: 13.3%
same,Potency,[5],inactive
CCN(CC)CC,"ratio activity, negative = MMP loss",[7],inconclusive: 20.1% [at 95.3 µM]
same,Potency,[8],inactive
same,"ratio activity, negative = inhibition",[1],inconclusive: 0.957% [at 81.1 µM]
same,Potency,[9],inactive
same,Potency,[3],inactive
same,Potency,[11],"inconclusive: 37.5 µM [inhibitor, partial curve]"
CCCCCCCC/C=C\CCCCCCCC(=O)OC(CO)CO,"activity change, negative = inhibition",[12],inconclusive: -49.3%
same,Potency,[8],inactive
same,Potency,[13],"inconclusive: 68.6 µM [cytotoxic, single point]"
same,Potency,[14],"inconclusive: 77 µM [cytotoxic, single point]"
same,"ratio activity, negative = inhibition",[1],inconclusive: -25.8%
same,activation,[9],inconclusive: 17.8%
same,Potency,[2],"inconclusive: 24.5 µM [rising, partial curve]"
same,Potency,[3],"inconclusive: 3.06 µM [inhibitor, partial curve, poor fit]"
same,Potency,[4],"inconclusive: 137 µM [inhibitor, partial curve, poor fit]"
same,Potency,[10]; [18],inconclusive: 54.5 µM
same,Potency,[15],"inconclusive: 35.6 µM [inhibitor, partial curve]"
COc1ccc(NC(C)=O)cc1N,Potency,[13],inactive
same,Potency,[16],active: 54.3 µM
same,Potency,[1],inactive
same,Potency,[9],inactive
same,Potency,[3],inactive
same,Potency,[11],"inconclusive: 70.7 µM [inhibitor, partial curve] and inconclusive: 63.3 µM [inhibitor, partial curve]"
CC(C)NCC(O)c1ccc2ccccc2c1 (stereo not drawn),activation,[17],inconclusive: -3.14%
same,Potency,[7],inactive
same,Potency,[13],"inconclusive: 33.5 µM [cytotoxic, single point]"
same,"ratio activity, negative = inhibition",[1],inconclusive: 0.109%
same,Potency,[9],inactive
